Reference: the supplement of paper PMC7125110
± gives the standard error. Variants at the floor of the assay are shown more often than the library holds them.

B1: glmS ribozyme (parent)
chain: AUAAAAGCGCCAGAACUACAGAAAUGUAGUUGACGAGGAGGAGGUUUAUCGAAUUUUCGGCGGAUGCCUCCAAA

Variants of: B1
Experiment: self-cleavage kobs at 2500 uM GlcN6P; higher = faster cleavage; RNA array
Details: with glucosamine-6-phosphate
Method in brief: (§1)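 Barcoded ribozyme variants were transcribed in situ on sequenced MiSeq chips by E. coli RNA polymerase. At 37 °C, a hybridised Cy3 probe tracked them while glucosamine-6-phosphate (40 μM to 10 mM) in HEPES/KCl/Mg(OAc)2 buffer flowed in and tiles were imaged over ~14 h. Per-tile medians of signals normalised to baseline and to non-cleaving reference variants were fit to one- or two-exponential decays, giving kobs. kcat and KM came from weighted Michaelis–Menten fits across concentrations.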

| Variant | self-cleavage kobs at 2500 uM GlcN6P [s⁻¹] |
| --- | --- |
| AUAAAAGGGUUAAAACUACAGAAAUGUAGUUGAGGAGGAGGAGGUUUAUCGAAUUUUCGGCGGAUGCCUCCAAA [C8G C10U C11U G13A C34G] | < 1e-05 |
| AUAAAAGAGCCAGAACUACAGAAAUGUAGUUUACGAUGAGGAGGUUUAUCGAAUUUUCGGCGGAUGCCUCCAAA [C8A G32U G37U] | < 1e-05 |
| AUAAAAGAGCGAGAACUACAGAAAUGUAGUUGACGAGGAGGAGGUUUAUCGAGUUUUCGGCGGAUGCCUCCAAA [C8A C11G A53G] | < 1e-05 |
| AUAAAAGGGCCAGAACUACAGAAAUGUAGUUGACGAGGAGGAGGUUUAUCCAAUUUUCGGCGGAUGCCUGCAAA [C8G G51C C70G] | < 1e-05 |
| AUAAAAGGGCCAGAACUACAGAAAUGUAGUUGACGAGGAGGAGGUUUAUCGAAUUUUCGGCGGUUGCCUUCAAA [C8G A64U C70U] | < 1e-05 |
| AUAAAAGGGCCAGAACUACAGAAAUGUAGUUGACGAGGAGGAGGUUCAUCGAAUUUUCGGUGGAUGCCUCCAAA [C8G U47C C61U] | < 1e-05 |
| AUAAAAGAGCCAAAACUACAGAAAUGUAGUUCACGAGGAGGAGGUUUAUCGAAUUUUCGGCGGAUGCCUCCAAA [C8A G13A G32C] | < 1e-05 |
| AUAAAAUCGCCAGAACUACAGAAAUGUAAUUGACGCGGAGGAGGUUUAUCGAAUUUUCGGCGGAUGCCCCCAAA [G7U G29A A36C U69C] | < 1e-05 |
| AUAAAAGAGCCAGAACUACAGAAAUGUACUUGACGAGGAGGAGGUUUAUCGAAUUUUCGGCGAAUGCCUUCAAA [C8A G29C G63A C70U] | < 1e-05 |
| AUAAAAGAGCCAGAACUACAGAAAUGUAGUUGACGAUGAGGAGGUUUAUCGAAUUUUUGGCGGAUGCCUCCAAA [C8A G37U C58U] | < 1e-05 |
| AUAAAAUCGCCAGAACUACAGAAAUGUAGUUGACGAUGAGGUGGUUUAUCUAAUUUUCGGCGGAUGCCUCCAAA [G7U G37U A42U G51U] | < 1e-05 |
| AUAAAAGAGCCAGAACUACAGAAAUGUAAUUGUCGAGGAGGAGCUUUAUAGAAUGCUCGGCGGAUGCCUCCAAA [C8A G29A A33U G44C C50A U55G U56C] | < 1e-05 |
| AUAAAAUCGCCAGAACUACAGAAAUGUAGUCCACCCGGAGGAGGUUUAUCGAAUUUUCGGCGGAUGCCUCUAAA [G7U U31C G32C G35C A36C C71U] | < 1e-05 |
| AUAAAAUCGCCAGAACUACAGAAAUGUAGUUGACGAGGAGGAGGUUUAUCGAAUUUUCGGCGCGUGCCUCCAAA [G7U G63C A64G] | < 1e-05 |
| AUAAAAUCGCCAGAACUACAGAAAUGUAGUUGACGAGGAUCAGGUUUAACGAAUUUUCGGCGGAUCCCUCCAAA [G7U G40U G41C U49A G66C] | < 1e-05 |
| AUAAAAUCGCCAGAACUACAGAAAUGUAUUUGACGAGGAGGCGGUUUAUCGACUUUUCGGCGGAUACCUCCAAA [G7U G29U A42C A53C G66A] | < 1e-05 |
| AUAAAAGGGCCAGAACUACAGAAAUGUAGUUGACGACGAGGAAGUUUAUCGAAUUUUCAGCGGAUGCCUCCAAA [C8G G37C G43A G59A] | < 1e-05 |

| Variant | self-cleavage kobs at 2500 uM GlcN6P [s⁻¹] |
| --- | --- |
| AUAAAAGGGCCAGAACUACAGAAAUGUAGUUGACGAGGAGGUGGUUUACCGGAUUUUCGGCGGAUGCCUCCAAA [C8G A42U U49C A52G] | < 1e-05 |
| AUAAAAUCGCCAGAACUACAGAAAUGUAGUUGACGAGGAGGAGGUUUAUCGAAUUUUCGACGGAUGUCUUCAUA [G7U G60A C67U C70U A73U] | < 1e-05 |
| AUAAAAGGGCCAGUACUACAGAAAUGUAGUUGACGAGGAGGAGGUUUAUCGAGUUUUCGGCGGAUGCCUCCAAA [C8G A14U A53G] | < 1e-05 |
| AUAAAAGAGCCAGAACUACAGAAAUGUAGUUGACGCAGAGGAGGUAUAUCGUAUUUUCGGCGGAUGCCUCCAAA [C8A A36C G37A U46A A52U] | < 1e-05 |
| AUAAAAGGGCCAGAACUACAGAAAUGUAGUUGGCGAGGAGGAGGUUUAUCGGGUUUUCGGCGGAUGCAGCCAAA [C8G A33G A52G A53G C68A U69G] | 0.000457 ± 0.00011 |
| AUAAAAGAGCCAGAACUACAGAAAUGUAGUUGACGAGGAGGAGGUGUAUCGAAUUUUCGGAGGACGCCUCCAAA [C8A U46G C61A U65C] | < 1e-05 |
| AUAAAAGAGCCAGAACUACAGAAAUGUAGUUGACGAGGACGAGGUUAAUCGAAUUUUCGGCGGUUGCCUCCAAA [C8A G40C U47A A64U] | < 1e-05 |
| AUAAAAUCGCCAGAACUACAGAAAUGUAGUUGACGAGGAAGAGGUUCAUCGAAUUUUCGGCGGAUGCCUCCAAA [G7U G40A U47C] | < 1e-05 |
| AUAAAAGAGCCAGAACUACAGAAAUGUAGUUGCCGAGGAGGAGGUUUAUCGAAUUUUCGGCGGAGGCCUCCAAA [C8A A33C U65G] | < 1e-05 |
| AUAAAAGAGCCAGAACUACAGAAAUGUAGUUGACGAGGAGGAGGUUUAUCGACUCUUCGUCGGAUGCGUCCAAA [C8A A53C U55C G60U C68G] | < 1e-05 |
| AUAAAAGAGCCAGAACUACAGAAAUGUAGUUGACGAGGAGGAGGUUUUUCGAAUUUUCGGCGGAUGCCACCAAA [C8A A48U U69A] | < 1e-05 |
| AUAAAAGGGCCAGAACUACAGAAAUGUAGUUGACGAGGAGGAGGUUUAUCGAAUUUUCCGCGGAUGCGUCCAAA [C8G G59C C68G] | < 1e-05 |
| AUAAAAGAGCCAGAACUACAGAAAUGUAGUUGACGAGGACGAGGUUUCUCCAAUUUUCCGCGGAUGCCUCCAAA [C8A G40C A48C G51C G59C] | < 1e-05 |
| AUAAAAGGGCCAGAACUACAGAAAUGUAGUUGACGAGGAGGAGGUUUUUCGAUUUUUCGGCGGAUGCCUCCAAA [C8G A48U A53U] | < 1e-05 |
| AUAAAAUCGCCAGAACUACAGAAAUGUAGUUGACGAGGAGGAGGAUUAUAGAAUUUUCGGCGGAUGCCUCGAAA [G7U U45A C50A C71G] | < 1e-05 |
| AUAAAAUCGCCAGAACUACAGAAAUGUAGUUGACAAGGAGGAGGUUUAUCGAAUUUUCGGCGGAUGCCGCCAAA [G7U G35A U69G] | < 1e-05 |
| AUAAAAUCGCCAGAACUACAGAAAUGUAAUUGUCGAGGAGGAGGUUUAUCGAAUUUUCGGCGUAUGCCUCCAAA [G7U G29A A33U G63U] | < 1e-05 |

Variants of: B1
Experiment: self-cleavage kobs at 10000 uM GlcN6P; higher = faster cleavage; RNA array
Details: with glucosamine-6-phosphate
Method in brief: as §1

| Variant | self-cleavage kobs at 10000 uM GlcN6P [s⁻¹] |
| --- | --- |
| AUAAAAGGGUUAAAACUACAGAAAUGUAGUUGAGGAGGAGGAGGUUUAUCGAAUUUUCGGCGGAUGCCUCCAAA [C8G C10U C11U G13A C34G] | < 1e-05 |
| AUAAAAGGGCCAGAACUACAGAAAUGUAGUUGACGAGGAGGAGGUUUUUCGAUUUUUCGGCGGAUGCCUCCAAA [C8G A48U A53U] | < 1e-05 |
| AUAAAAUCGCCAGAACUACAGAAAUGUAGUUGACGAGGAGGAGGAUUAUAGAAUUUUCGGCGGAUGCCUCGAAA [G7U U45A C50A C71G] | < 1e-05 |
